The source of these data is PubChem BioAssay AID1963576 (National Center for Advancing Translational Sciences (NCATS), 2024).

In all, about 46,000 compounds went through this assay and about 60 (0.1%) were called active. About 3% were inconclusive and are not listed. Calls come from the whole dose curve; as a rule, active = well fitted inhibition curve with a large enough effect; inconclusive = small, poorly fitted or top-dose-only effect; inactive = no such curve, though single readings can be large or run the other way. Some of the results follow.

This experiment can be described thus: Primary qHTS assay for Inhibitors of ovarian cancer metastasis using an organotypic tumor microenvironment (TME) model.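 For activity change, negative = inhibition: plate controls were DMSO wells for no effect and tomatine positive control wells for full effect.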 Note: nearly all actives have a fitted effect of over 65% in size. The note with it: SKOV3ip1-GFP adhesion/invasion on 3D omental model, fluorescence; series mostly up to 45.8 µM; activity change, negative = inhibition: at the top concentration. Put shortly: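 A 3D layer of primary human omental fibroblasts, mesothelial cells, fibronectin and collagen I, grown 48 hr, received SKOV3ip1-GFP cells in serum-free medium plus compounds at 0.36-46 umol/L. After 2 hr RT and 16 hr 37 C, fixed adherent GFP cells were counted; normalized to DMSO and tomatine.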
(Quantitative high-throughput screening tests each substance at several concentrations.)
Consider `O=C(Nc1nnc(S(=O)(=O)N2CCCCC2)s1)c1ccc(Cl)cc1`, for which the “activity change, negative = inhibition” value is inactive: -7.29%.
The same measure, in the same setting: the figure for `CCc1ccc(-c2[nH]c3c(c2-c2c(-n4cccc4)n(C)c(=O)[nH]c2=O)c(=O)[nH]c(=O)n3C)cc1` is inactive: 6.69%.
`COc1ccc(-n2ncc(C(=O)Nc3ccc(C)cc3Cl)c2C2CCN(C(=O)OC(C)(C)C)CC2)cc1`: the “activity change, negative = inhibition” value was inactive: -0.798%.
The same measure, in the same setting: next, `COc1ccccc1CNC(=O)c1ccc(NC(=O)N2CC(C)Sc3ccccc32)cc1` (stereo not drawn): inactive: 1.33%.
Same read-out and setting: the figure for `Cc1cccc(C)c1NC(=O)C1CCCN(S(=O)(=O)c2c(C)noc2/C=C/N(C)C)C1` (stereo not drawn) is inactive: 0.531%; for `CCN(CC)CCNC(=O)C1CCCN(c2nnc(C)c3c(C)n(-c4ccc(Cl)cc4)nc23)C1` (stereo not drawn) it is inactive: -7.04%; for `CCOc1ccc(NC(=O)CSc2nnc(CC)c(CC)n2)cc1` it is inactive: -6.83%.
Consider `CCOc1ccc(-c2cn3c(n2)sc2cc(C(=O)NCCC4=CCCCC4)ccc23)cc1`, for which the “activity change, negative = inhibition” value is inactive: 13.5%.
For `COc1ccc(S(=O)(=O)NCC(c2ccco2)S(=O)(=O)c2ccc(C)cc2)cc1C` (stereo not drawn), the “activity change, negative = inhibition” value was inactive: 3.12%.
The same measure, in the same setting: next, `Cc1ccc(-c2noc(-c3cccnc3NCc3ccc(Cl)cc3)n2)cc1`: inactive: -5.1%.
For the compound `Cc1ccc(-c2nc3scc(CCNS(=O)(=O)c4ccc(C)c(C)c4)n3n2)cc1`, the “activity change, negative = inhibition” value was inactive: 7.74%.
On the same count and under the same terms, next, `COC(=O)c1ccc(NC(=O)CSc2ccc(-c3cccs3)nn2)cc1`: inactive: -20.8%; `Cc1cccc(OCC(=O)Nc2ccc(C(=O)OCc3cc(=O)n4nc(C5CC5)sc4n3)cc2)c1`: inactive: -0.181%; `CCOC(=O)c1cc(-c2ccc(C)cc2)n(CCC(=O)NCc2ccccc2)c1C`: inactive: 5.15%.
Turning to `CCOc1ccc(Sc2cc(C(=O)NCCCOC)c3ccccc3n2)cc1`, the outcome was inactive.
In the case of `C#CCOc1ccc(C2C(C(=O)OC)=C(C)NC3=C2C(=O)c2ccccc23)cc1OCC` (stereo not drawn), the “activity change, negative = inhibition” value is inactive: 10.4%.
Take `COc1ccc2cc(S(=O)(=O)c3ccccc3F)c(=O)oc2c1`: the compound was classed as inactive.
In the case of `Cc1cc(C)c(NC(=O)c2cc(CN3CCOCC3)on2)c(C)c1`, the “activity change, negative = inhibition” value was inactive: 3.9%.
For `CCc1ccc(NC(=O)C(Cc2ccccc2)NS(=O)(=O)c2ccc3c(c2)CCN3C(C)=O)cc1` (stereo not drawn), the “activity change, negative = inhibition” value is inactive: 9.62%.
For the compound `Cc1ccc(C)c(CSc2c(C(C)C)cnc3c2c(=O)n(C)c(=O)n3C)c1`, the compound was classed as inactive.
For the compound `CN1CCN(C(=O)c2cnn(-c3cccc(F)c3)c2C2CCN(C(=O)OC(C)(C)C)CC2)CC1`, the “activity change, negative = inhibition” value is inactive: 7.07%.
The same measure, in the same setting: the figure for `CCOc1ccccc1CNC(=O)c1nn(C)c2c1CS(=O)(=O)c1ccccc1-2` is inactive: 4.61%; for `CC(C)c1ccc(CNc2nc(-c3ccco3)nn2S(=O)(=O)c2ccccc2)cc1` it is inactive: -10.7%.
Still for that read-out and setting: next, `Cc1cc2c(cc1NC(=O)c1ccc(C(C)(C)C)cc1)n(C)c(=O)c(=O)n2C`: inactive: 0.627%; `COc1ccc(N2CCN(C(CNC(=O)c3ccc(C)cc3)c3ccc4c(c3)OCO4)CC2)cc1` (stereo not drawn): inactive: -7.08%.
Regarding `Cc1csc2nc(COc3ccc(NC(=O)COc4ccc(F)cc4)cc3)cc(=O)n12`, the “activity change, negative = inhibition” value was inactive: -4.99%.
On the same count and under the same terms, the figure for `Cc1ccc(NC(=O)Cn2cc(S(=O)(=O)N3CCN(c4ccccc4F)CC3)c3ccccc3c2=O)cc1F` is inactive: -1.23%; for `Cc1sc(-c2cc3ccccc3oc2=O)nc1-c1ccc(Cl)cc1` it is inactive: 1.2%.
The same measure, in the same setting: next, `COC(=O)c1cc(S(=O)(=O)N2CCN(c3ccc(C)cc3C)CC2)cn1C`: inactive: 1.94%; `Cc1ccc(-c2cc(C(=O)Oc3ccccc3)c3cccc(C)c3n2)cc1`: inactive: -17.8%.
On the same count and under the same terms, the figure for `COc1ccc(NC(=O)c2sc3nc[nH]c(=O)c3c2C)cc1` is inactive: -5.6%; for `CCCCCCOc1ccc(-c2nc3ccc(Br)cc3c(=O)o2)cc1` it is inactive: -0.167%.
On to `COC(=O)c1ccccc1NC(=O)Nc1cccc(OCc2cc(=O)n3cccc(C)c3n2)c1`, for which the outcome was inactive.
Consider `CCOc1ccc(C2c3c(oc4ccc(C)cc4c3=O)C(=O)N2c2nc(C)c(C)s2)cc1OC` (stereo not drawn), for which the “activity change, negative = inhibition” value is inactive: -1.01%.
On the same count and under the same terms, next, `O=C1CN(C(=O)C2CCCCC2)C(c2ccccc2)c2cc(F)ccc2N1` (stereo not drawn): inactive: -8.15%; `CCOC(=O)c1cnc2ccc(OCC)cc2c1N1CCN(c2cccc(Cl)c2)CC1`: inactive: -3.81%.
Take `COc1ccc(-c2noc(-c3ccc(N4CCCCC4)c([N+](=O)[O-])c3)n2)cc1`: the compound was called inactive.
Take `CC(C)Oc1ccc(CNC(=O)C2COc3ccccc3C2)cc1` (stereo not drawn): the “activity change, negative = inhibition” value is inactive: -8.13%.
In the case of `Cc1ccccc1-c1nc(CS(=O)CC(=O)NCCc2ccc(Cl)cc2)c(C)o1` (stereo not drawn), the compound was called inactive.
Regarding `O=C(CN1C(=O)COc2ccc(S(=O)(=O)N3CCCC3)cc21)N1CCN(c2ccccc2F)CC1`, the “activity change, negative = inhibition” value is inactive: -9.9%.
The same measure, in the same setting: the figure for `O=C1CC(c2ccccc2)Cc2[nH]c(=O)c(-c3nc(-c4ccc(F)cc4)cs3)cc21` (stereo not drawn) is inactive: -15.3%; for `COc1ccc(CC(=O)Nc2ccc(-c3nc4ccccc4s3)cc2Cl)cc1` it is inactive: -2.79%; for `Cc1cc(NC(=O)C2CCCN(S(=O)(=O)c3ccc(Br)s3)C2)ccc1Br` (stereo not drawn) it is inactive: -8.55%.
Same read-out and setting: next, `COc1cccc(C2=NS(=O)(=O)N(C)C(C(=O)Nc3cccc(O)c3)=C2)c1`: inactive: -8.83%.
On the same count and under the same terms, the figure for `Cc1ccc(-c2nnc(SCC(=O)NCCC(C)C)nc2-c2ccc(C)cc2)cc1` is inactive: 4.23%.
For `CCn1cc(C(=O)NCCCN(CC(C)C)CC(C)C)c(=O)c2cc(S(=O)(=O)N3CCc4ccccc4C3)ccc21`, the compound was classed as inactive.
With `CCN1CCN(C(c2cccc(Cl)c2)c2c(O)cc(C)n(CCOC)c2=O)CC1` (stereo not drawn), the “activity change, negative = inhibition” value is inactive: 15.1%.
For `Cc1ccc(CCNC(=O)CN2C(=O)COc3ccc(S(=O)(=O)N4CCC(C)CC4)cc32)cc1`, the “activity change, negative = inhibition” value was inactive: -3.19%.
Take `Cc1cc(OCC(=O)NCC2(N(C)C)CCCCC2)cc(C)c1Cl`: the “activity change, negative = inhibition” value was inactive: -2.63%.
On to `CCCN(CCC)c1nn2c(=O)c(C(=O)NCc3cccc(OC)c3)cnc2s1`, for which the compound was classed as inactive.
On to `Cc1cc2nn(-c3ccc(F)cc3)nc2cc1NC(=O)c1cc(Cl)ccc1Cl`, for which the “activity change, negative = inhibition” value was inactive: 4.12%.
Still for that read-out and setting: the figure for `N=C1SC(=Cc2ccc(-c3ccc4c(c3)C(=O)NC4=O)o2)C(=O)N1c1ccc(Br)cc1` is inactive: -17.1%.
Same read-out and setting: the figure for `CCc1ccc(NC(=O)N(Cc2c[nH]c3ccccc23)C2CCCCCC2)cc1` is inactive: 2.92%; for `COc1ccc(N2CCN(C(CNC(=O)C(=O)NCc3ccc(F)cc3)c3cccnc3)CC2)cc1` (stereo not drawn) it is inactive: 1.61%; for `O=C(NCc1ccccc1)C(=O)NCC(c1ccco1)S(=O)(=O)c1ccccc1` (stereo not drawn) it is inactive: -6.99%.
On the same count and under the same terms, the figure for `COc1ccc(Cl)cc1NC(=O)CSc1nnc(C)n2c1cc1occc12` is inactive: -0.88%.
On to `O=S1(=O)c2ccccc2N(Cc2ccccc2Cl)c2ccccc21`, for which the compound was called inactive.
Same read-out and setting: the entry for `COc1cccc(NC(=O)C(=O)NCCc2sc(-c3cccc(C)c3)nc2C)c1` is “inactive”; for `COc1ccc(Nc2nc(N)nc(CSc3nc4ccccc4s3)n2)cc1` it is “inactive”.
Consider `COc1ccc(-c2cc(NCc3ccc(C)cc3)n3cnnc3n2)cc1`, for which the result was inactive.
Same read-out and setting: next, `CCN1C(=O)c2ccccc2Sc2ccc(NC(=O)Nc3ccc(Br)c(C)c3)cc21`: “inactive”.
Turning to `COc1ccc(CCNC(=O)c2cc3c(=O)n(C)c4cc(Cl)ccc4c3s2)cc1OC`, the “activity change, negative = inhibition” value is inactive: -11.6%.
The same measure, in the same setting: the figure for `CCC1CN(C(=O)NCc2cccc(OC)c2)c2ccccc2O1` (stereo not drawn) is inactive: -9.67%; for `Cc1ccc(-c2ccc(=O)n(CC(=O)NC(C)c3ccccc3)n2)cc1` (stereo not drawn) it is inactive: 13.5%; for `Cc1c(C(=O)OC2CCCCCC2)[nH]c2c1C(=O)CC(c1ccccc1Cl)C2` (stereo not drawn) it is inactive: -19.6%.
For `CCOC(=O)c1c(S(=O)(=O)N2CCC(C(=O)Nc3cccc(C#N)c3)CC2)c(C)n(C)c1C`, the “activity change, negative = inhibition” value is inactive: 7.75%.
On the same count and under the same terms, next, `CCN(CC)S(=O)(=O)c1ccc(C(=O)NC2CC(=O)N(c3ccc4c(c3)OCCO4)C2)cc1` (stereo not drawn): inactive: 6.36%.
As to `O=C(CN1C(=O)COc2ccc(S(=O)(=O)Nc3ccccc3)cc21)NCc1ccccc1Cl`, the result was inactive.
Regarding `Oc1ccc(C2CNCCc3c2cc(O)c(O)c3Cl)cc1` (stereo not drawn), the “activity change, negative = inhibition” value is inactive: -12.3%.
Same read-out and setting: the figure for `Cc1ccccc1NC(=O)Cn1c(=O)n(CCCCC(=O)NCc2ccccc2Cl)c(=O)c2ccccc21` is inactive: 6.77%.
The same measure, in the same setting: next, `O=C(CSc1nc2c(c(=O)[nH]1)CN(Cc1ccc(F)cc1)CC2)Nc1cccc(C(F)(F)F)c1`: inactive: -2.25%; `Cc1cc(C)nc(-n2nc(C)c3c2NC(=O)CC3c2ccccc2OC(C)C)n1` (stereo not drawn): inactive: -3.01%.
With `COc1ccc(NC(=O)Cn2c(=O)n(CCc3ccccc3)c(=O)c3sc4ccccc4c32)cc1`, the outcome was inactive.
As to `CCOC(=O)c1ccc(N2C(=O)c3[nH]nc(-c4ccccc4)c3C2c2cccs2)cc1` (stereo not drawn), the compound was called inactive.
Same read-out and setting: next, `COc1ccc(CCNc2nc(SCc3ccccc3Cl)nc3ccccc23)cc1OC`: “inactive”.
`CCC1CCCCN1C(=O)Cn1c(=O)n(-c2ccccc2C(F)(F)F)c(=O)c2c(C)c(C(=O)N(C)C)sc21` (stereo not drawn): the “activity change, negative = inhibition” value is inactive: -3.95%.
Regarding `COc1cc(Cl)c(NS(=O)(=O)c2ccc3[nH]c(=O)ccc3c2)c(OC)c1`, the outcome was inactive.
Take `CCCCC(=O)NC1(C(F)(F)F)C(=O)Nc2c1c(=O)[nH]c(=O)n2-c1ccc(F)cc1` (stereo not drawn): the “activity change, negative = inhibition” value is inactive: 0.069%.
The same measure, in the same setting: the figure for `Cc1ccc(C)c(NC(=O)C2CCCN(S(=O)(=O)c3cccc4nsnc34)C2)c1` (stereo not drawn) is inactive: 56.3%; for `Cc1ccc(NC(=O)Cn2c(=O)n(Cc3nc(-c4ccccc4)no3)c(=O)c3cc4c(cc32)OCO4)cc1C` it is inactive: -9.12%.
On the same count and under the same terms, next, `COc1ccccc1N1CCN(C(c2ccccc2)c2nnc(-c3ccccc3Cl)o2)CC1` (stereo not drawn): inactive: -4.46%; `COc1ccc(C2CC(=O)c3c([nH]c(C(=O)OC4CCCC4)c3C)C2)cc1OC` (stereo not drawn): inactive: 2.4%.
Take `CCOc1ccc(NC(=O)C(CC)n2nc(-c3ccc(C)c(C)c3)ccc2=O)cc1` (stereo not drawn): the “activity change, negative = inhibition” value was inactive: 9.43%.
Still for that read-out and setting: next, `CCOc1ccc(OCC)c(NC(=O)CN(c2ccc(C)cc2)S(=O)(=O)c2c(C)n[nH]c2C)c1`: inactive: -3.95%.
Same read-out and setting: next, `CCOc1ccc(CCNC(=O)c2ccc(Cn3c(=O)c4cccn4c4cccnc43)cc2)cc1`: inactive: -3.64%; `COc1ccc(-c2csc3ncnc(Nc4ccc(OC)c(OC)c4)c23)cc1`: inactive: -18.9%; `COc1cccc(C(=O)c2sc(Nc3ccc(C)cc3C)c(S(=O)(=O)c3ccccc3)c2N)c1`: inactive: 3.05%.
Still for that read-out and setting: the figure for `CCCNC(=O)c1cc2n(n1)CCCN(Cc1ccc(F)cc1)C2=O` is inactive: 0.649%.
For `O=C(c1ccc2c(c1)N(Cc1ccccc1F)C(=O)c1ccccc1S2(=O)=O)N1CCCCCC1`, the compound was called inactive.
For the compound `Cc1ccc2scc(N3CCN(c4ccccc4)CC3)c(=O)c2c1`, the “activity change, negative = inhibition” value was inactive: 0.841%.
On the same count and under the same terms, next, `CCOc1ccc(CCNC(=O)c2ccc3[nH]c(C)c(C)c3c2)cc1`: inactive: 19.7%; `O=C(OCc1ccccc1)c1ccc(-c2nnn(Cc3ccccc3F)n2)cc1`: inactive: -5.71%; `O=C(CSCc1nc2cccnc2n1C1CCCCC1)NCc1cccc(Br)c1`: inactive: 5.3%.
